In the supplement of paper PMC12217912:
The other results are listed elsewhere or left out. Sequences were assembled here from the parent chain. Values near 0.05 are background.

B1: TEV protease; numbered along this chain (parent)
chain: MGESLFKGPRDYNPISSSICHLTNESDGHTTSLYGIGFGPFIITNKHLFRRNNGTLVVQSLHGVFKVKDTTTLQQHLVDGRDMIIIRMPKDFPPFPQKLKFREPQREERICLVTTNFQTKSMSSMVSDTSCTFPSGDGIFWKHWIQTKDGQCGSPLVSTRDGFIVGIHSASNFTNTNNYFTSVPKNFMELLTNQEAQQWVSGWRLNADSVLWGGHKVFMVKPEEPFQPVKEATQL

Variants of: B1
Experiment: raw area under fraction-flipped curve 0-4 h after induction (AUC4h, not background-subtracted), DNA-recorder readout of cleavage of the substrate (dimensionless); higher = more cleavage of the substrate by the protease variant
Details: temperature: 34 °C; time window: 0-4 h after rhamnose induction
Experimental: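 In vivo DNA recorder in E. coli TOP10(DE3) ΔrhaA at 34 °C. Each TEVp single-site mutant (parent TEVp 0) is paired with a single-site variant of the 7-mer TEVs (canonical ENLYFQ|S). The substrate sits between flexible linkers in a Bxb1-sfGFP-TEVs-SsrA fusion, so cleavage stabilises Bxb1 and speeds flipping of a recombination array, read by NGS. The value is the raw area under the fraction-flipped curve over 0-4 h after rhamnose induction (AUC4h), with ≥20 reads per time point. It is not background-subtracted; inactive controls average about 0.047.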
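Note: Bxb1 expression induced with 0.2% (w/v) L-rhamnose at OD600 near 0.5, cultures sampled hourly, flipped fraction per protease–substrate barcode pair counted by paired-end Illumina sequencing.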

Row | Variant | area with substrate EALYFQS | area with substrate ECLYFQS | area with substrate EGLYFQS | area with substrate EILYFQS | area with substrate ELLYFQS | area with substrate EPLYFQS | area with substrate EQLYFQS | area with substrate ERLYFQS | area with substrate ESLYFQS | area with substrate ETLYFQS | area with substrate EVLYFQS | area with substrate EELYFQS | area with substrate EHLYFQS | area with substrate EKLYFQS | area with substrate EWLYFQS | area with substrate EFLYFQS | area with substrate EMLYFQS | area with substrate EYLYFQS | area with substrate EDLYFQS
1 | M125C | 0.0963 | 0.0832 | 0.0611 | 0.0984 | 0.0892 | 0.0678 | 0.0911 | 0.111 | 0.1 | 0.12 | 0.0913 | – | – | – | – | – | – | – | –
2 | M125P | 0.152 | 0.11 | – | – | – | 0.123 | – | – | 0.0993 | – | 0.0635 | – | – | – | – | – | – | – | –
3 | M125G | 0.111 | – | – | 0.0941 | – | – | 0.113 | 0.12 | 0.102 | – | – | 0.138 | 0.154 | 0.143 | 0.114 | – | – | – | –
4 | Q74M | 0.105 | 0.0956 | 0.0953 | 0.101 | 0.092 | 0.0593 | 0.161 | 0.127 | 0.105 | – | 0.0863 | – | – | 0.11 | – | 0.103 | 0.108 | 0.0985 | –
5 | Q74A | 0.116 | – | 0.0871 | 0.0986 | 0.0886 | – | 0.121 | – | 0.11 | 0.104 | 0.0918 | 0.119 | 0.104 | 0.0944 | – | – | 0.111 | 0.0985 | –
6 | K100C | 0.115 | – | 0.0945 | 0.119 | 0.0977 | 0.0882 | 0.164 | – | 0.0893 | – | 0.0798 | 0.135 | 0.127 | 0.112 | 0.0825 | 0.136 | 0.132 | – | 0.108
7 | S123C | 0.163 | 0.0738 | 0.116 | 0.0944 | – | 0.0955 | – | 0.0911 | 0.0802 | 0.0941 | – | – | 0.0653 | 0.0636 | 0.0878 | – | 0.119 | – | –
8 | S123Y | 0.0852 | – | – | 0.107 | – | – | 0.114 | – | 0.114 | 0.114 | 0.0854 | – | – | 0.0935 | 0.108 | – | 0.101 | – | –
9 | P96I | 0.105 | – | 0.0768 | 0.0789 | 0.0422 | – | 0.0938 | – | 0.0892 | 0.12 | 0.1 | 0.0702 | 0.109 | 0.112 | 0.0844 | 0.121 | 0.113 | 0.0944 | –
10 | T129N | 0.135 | – | 0.0918 | 0.0724 | – | 0.105 | – | 0.109 | 0.104 | 0.11 | – | 0.121 | – | 0.123 | 0.0928 | – | – | 0.112 | –
11 | T119V | 0.138 | 0.0779 | – | 0.0786 | – | 0.115 | – | 0.111 | 0.106 | – | – | – | – | 0.125 | 0.12 | 0.0677 | 0.0508 | – | –
12 | R81S | 0.0314 | – | 0.0424 | 0.0658 | – | 0.0872 | 0.0784 | 0.0791 | 0.0735 | 0.0648 | – | – | 0.0884 | 0.0734 | – | – | – | – | –
13 | D69K | 0.0769 | – | 0.0818 | 0.0951 | – | – | – | 0.0876 | 0.114 | – | – | – | – | 0.0862 | – | – | – | – | –
14 | R87Y | 0.113 | – | – | – | – | 0.0805 | – | 0.0688 | 0.074 | – | 0.102 | 0.0883 | – | 0.0942 | 0.0882 | – | – | – | –
15 | R87A | 0.105 | 0.0836 | – | 0.1 | 0.118 | 0.143 | 0.105 | 0.122 | 0.109 | – | 0.0858 | – | – | 0.117 | 0.0606 | – | 0.109 | 0.137 | –
16 | R87F | 0.109 | 0.0936 | 0.0803 | 0.0875 | – | 0.113 | 0.115 | 0.0886 | 0.0886 | 0.099 | – | – | 0.0968 | 0.105 | – | 0.0445 | 0.0834 | – | –

Row | Variant | area with substrate EALYFQS | area with substrate ECLYFQS | area with substrate EGLYFQS | area with substrate EILYFQS | area with substrate ELLYFQS | area with substrate EPLYFQS | area with substrate EQLYFQS | area with substrate ERLYFQS | area with substrate ESLYFQS | area with substrate ETLYFQS | area with substrate EVLYFQS | area with substrate EELYFQS | area with substrate EHLYFQS | area with substrate EKLYFQS | area with substrate EWLYFQS | area with substrate EFLYFQS | area with substrate EMLYFQS | area with substrate EYLYFQS | area with substrate EDLYFQS
17 | R87I | 0.0995 | 0.0859 | 0.0775 | 0.0756 | – | – | 0.0944 | 0.0898 | 0.0842 | 0.0763 | 0.0766 | – | – | 0.0847 | 0.0754 | 0.0823 | – | 0.0741 | –
18 | V78R | 0.0548 | – | – | – | – | – | – | – | 0.0146 | 0.0527 | – | 0.0701 | 0.052 | 0.0235 | 0.0581 | – | – | 0.0698 | 0.0402
19 | V78L | 0.101 | 0.117 | – | 0.0876 | – | 0.135 | 0.119 | – | 0.103 | – | 0.111 | – | – | 0.147 | – | – | – | 0.0859 | –
20 | K120S | 0.107 | 0.119 | 0.093 | 0.0887 | 0.114 | 0.134 | 0.115 | 0.0932 | 0.0886 | 0.12 | 0.113 | – | 0.125 | – | 0.0678 | – | 0.102 | 0.125 | –
21 | F95I | 0.0976 | 0.0692 | 0.0579 | 0.066 | 0.0765 | 0.114 | – | 0.0909 | 0.084 | 0.0987 | 0.0692 | – | 0.095 | 0.0827 | – | 0.0917 | 0.0946 | 0.0592 | –
22 | F95C | 0.0787 | 0.0949 | – | – | – | – | – | – | – | – | – | – | 0.104 | 0.0925 | 0.0939 | – | – | – | –
23 | F95K | 0.0553 | – | – | 0.0414 | 0.0794 | 0.0831 | – | – | – | – | – | – | 0.0752 | 0.0778 | – | – | 0.0775 | – | –
24 | K68W | 0.123 | – | 0.0972 | 0.0638 | 0.0773 | – | 0.128 | 0.109 | 0.1 | 0.106 | 0.0993 | 0.0844 | – | 0.101 | – | 0.102 | 0.108 | 0.0791 | 0.135
25 | D91N | 0.133 | – | 0.139 | – | – | – | – | – | 0.0968 | 0.149 | 0.226 | – | 0.0915 | 0.153 | – | – | 0.14 | – | –
26 | D91R | 0.165 | – | – | – | 0.0904 | 0.126 | – | – | 0.109 | – | – | – | – | – | 0.0889 | – | 0.122 | – | 0.147
27 | D91K | 0.107 | – | – | 0.114 | – | – | 0.103 | 0.0951 | 0.0884 | – | – | – | 0.0586 | – | – | – | – | – | –
28 | R106V | 0.131 | – | – | 0.103 | – | – | 0.085 | 0.106 | 0.102 | 0.124 | – | 0.14 | – | – | – | – | – | – | –
29 | R106M | 0.125 | – | 0.113 | 0.121 | 0.194 | 0.171 | 0.107 | – | 0.105 | – | 0.0421 | – | 0.11 | – | 0.0866 | – | 0.101 | 0.105 | –
30 | P94R | 0.105 | – | 0.103 | 0.102 | – | 0.151 | 0.109 | 0.134 | 0.0841 | – | 0.0961 | 0.121 | – | 0.145 | – | – | 0.123 | 0.122 | 0.148
31 | M122R | 0.167 | – | – | 0.116 | 0.11 | – | – | – | 0.104 | – | – | 0.122 | 0.124 | – | 0.104 | 0.145 | – | – | –
32 | L77C | 0.0854 | 0.0853 | – | 0.0698 | 0.0698 | – | 0.105 | 0.0768 | 0.0649 | – | 0.0775 | – | 0.0761 | 0.0996 | – | – | 0.0802 | 0.0801 | –
